Drawing on the supplement of paper PMC10600219, this text covers cell viability for 45 compounds.

Counter-ions that a name gives are not always drawn. Whole data set: some 2,800 compounds, median “cell viability relative to vehicle” near 1.1, cut for the lowest 2% near 0.19. Some of the results follow.

The test has as its system NCI-H2228 parental. Nature of the test: cell viability relative to vehicle (fraction of vehicle); NCI-H2228 is an ALK-positive lung cancer line and DTP means drug-tolerant persister; higher = less growth inhibition. Conditions: 100 nM; treatment time 6 days. The essentials:
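The 3114-agent TargetMol anti-cancer compound library was tested at 100 nM for 6 days on parental NCI-H2228 cells and on persister cells derived with 1000 nM of a targeted drug for 13 days. ATP readout by the CellTiter-Glo 3D Cell Viability Assay gave cell viability relative to DMSO vehicle-treated cells.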
For the compound `CCn1cc(C(=O)O)c(=O)c2cc(F)c(N3CCNCC3)nc21` [Enoxacin], the cell viability came to 0.966.

With `CCn1cc(C(=O)O)c(=O)c2cc(F)c(N3CCNCC3)nc21` [Enoxacin Sesquihydrate], the cell viability was found to be 1.01.

As to `CC(C(=O)O)c1cccc(Oc2ccccc2)c1` (stereo not given) [Fenoprofen calcium dihydrate], the cell viability was 1.09.

For the compound `CC(C)[C@H](NC(=O)CCCCCN1C(=O)C=CC1=O)C(=O)N[C@@H](CCCNC(N)=O)C(=O)Nc1ccc(COC(=O)Oc2ccc([N+](=O)[O-])cc2)cc1`, the cell viability was found to be 0.848. For the compound `COCCOc1nc(-c2ccc(Cl)c(Cl)c2)n(-c2ccc(NC(=O)CCl)cc2)n1` [MI 2 (MALT1 inhibitor)], the cell viability amounted to 1.09.

As for `O=C1NC(=O)C(c2ccccc2[N+](=O)[O-])=C1Nc1ccc(O)c(Cl)c1`, the cell viability was found to be 0.948. In the case of `O=C1NC(=O)/C(=C/c2ccc3nccc(-c4ccncc4)c3c2)S1`, the cell viability was determined as 1.11. Turning to `C/C(=C1/C(=O)Nc2ccc(NC(N)=O)cc21)c1ccc[nH]1`, the cell viability was 1.13. As for `C=CC(C)(O)CCC=C(C)CCC=C(C)C` (mixture of isomers) [nerolidol], the cell viability amounted to 0.91. Regarding `N#C/C(=C\c1ccc(O)c(O)c1)C(=O)Nc1ccccc1`, the cell viability turned out to be 1.

For `COc1ccc([C@@H]2OC[C@H]3[C@@H]2CO[C@@H]3c2ccc(O[C@@H]3O[C@H](CO)[C@@H](O)[C@H](O)[C@H]3O)c(OC)c2)cc1OC` [Forsythin], the cell viability is 1.

In the case of `Cc1c(Cl)cccc1Nc1ccccc1C(=O)O` [Tolfenamic Acid], the cell viability came out at 0.939. In the case of `CCCSc1ccc2[nH]c(NC(=O)OC)nc2c1` [Albendazole], the cell viability worked out at 0.85. `CC(=O)C1=C(O)C=C2Oc3c(C(C)=O)c(O)c(C)c(O)c3C2(C)C1=O` (stereo in doubt) [Usnic Acid]: the cell viability amounted to 1.15. As for `c1ccc(-c2nc(-c3ccc(-c4nc(-c5ccccc5)c(-c5ccccc5)[nH]4)cc3)[nH]c2-c2ccccc2)cc1`, the cell viability worked out at 1.05. For `CO[C@H]1/C=C/O[C@@]2(C)Oc3c(C)c(O)c4c(O)c(c(/C=N/N5CCN(C)CC5)c(O)c4c3C2=O)NC(=O)/C(C)=C\C=C\[C@H](C)[C@H](O)[C@@H](C)[C@@H](O)[C@@H](C)[C@H](OC(C)=O)[C@@H]1C` [Rifampicin], the cell viability came out at 1.16. Next, `CC(C)Nc1cc(-c2c[nH]c(C(=O)N[C@H](CO)c3cccc(Cl)c3)c2)c(Cl)cn1` [Ulixertinib]: 1.09; `Cc1ccc(N(CC2=NCCN2)c2cccc(O)c2)cc1` [Phentolamine mesilate]: 1.2; `CCc1ccc(CCOc2ccc(CC3SC(=O)NC3=O)cc2)nc1` (stereo not given) [Pioglitazone]: 0.977. Next, `COc1c(O)cc2occ(-c3ccc(O)cc3)c(=O)c2c1O` [Tectorigenin]: 1; `c1ccc(CC2=NCCN2)cc1` [Tolazoline hydrochloride]: 1.1; `OCCN1CCN(CCCN2c3ccccc3Sc3ccc(C(F)(F)F)cc32)CC1` [Fluphenazine hydrochloride]: 1.1. For the compound `CC(C)(Oc1ccc(CCNC(=O)c2ccc(Cl)cc2)cc1)C(=O)O` [Bezafibrate], the cell viability came to 1.22. Turning to `O=C(c1cc(Cc2n[nH]c(=O)c3ccccc23)ccc1F)N1CCN(C(=O)C2CC2)CC1` [Olaparib], the cell viability came to 1.05. Consider `O=C(O)CCc1nc(-c2ccccc2)c(-c2ccccc2)o1` [Oxaprozin], for which the cell viability came to 1.11. On to `CC(C(=O)O)c1ccc(CC2CCCC2=O)cc1` (stereo not given) [Loxoprofen], for which the cell viability was 1.2. Next, `CC[C@H]1OC(=O)[C@H](C)[C@@H](O[C@H]2C[C@@](C)(OC)[C@@H](O)[C@H](C)O2)[C@H](C)[C@@H](O[C@@H]2O[C@H](C)C[C@H](N(C)C)[C@H]2O)[C@](C)(O)C[C@@H](C)C(=O)[C@H](C)[C@@H](O)[C@]1(C)O` [Erythromycin]: 1.02. On to `CC1=C(/C=C/C(C)=C/C=C/C(C)=C/C=C/C=C(C)/C=C/C=C(C)/C=C/C2=C(C)CCCC2(C)C)C(C)(C)CCC1` [Beta-Carotene], for which the cell viability was 1.07. In the case of `CC1(C)CCC(c2ccc(Cl)cc2)=C(CN2CCN(c3ccc(C(=O)NS(=O)(=O)c4ccc(N[C@H](CCN5CCOCC5)CSc5ccccc5)c(S(=O)(=O)C(F)(F)F)c4)cc3)CC2)C1` [Navitoclax], the cell viability is 1.19. `NC(=O)c1ccccc1O` [Salicylamide]: the cell viability turned out to be 1.1. With `CCOC(=O)N1CCC(=C2c3ccc(Cl)cc3CCc3cccnc32)CC1` [Loratadine], the cell viability was 0.998. Turning to `COc1ccc(S(=O)(=O)/N=C2\C=CC=C\C2=C/C=C2C=CN(O)C=C2)cc1`, the cell viability worked out at 0.87. Regarding `Nc1nc(F)nc2c1ncn2[C@@H]1O[C@H](COP(=O)(O)O)[C@@H](O)[C@@H]1O` [Fludarabine Phosphate], the cell viability was determined as 1.12.

In the case of `O=C(NOCC1CC1)c1ccc(F)c(F)c1Nc1ccc(I)cc1Cl`, the cell viability was determined as 0.849. To `COc1ccc(-c2coc3cc(O)ccc3c2=O)cc1` [Formononetin] belongs 1.18. Turning to `CN1CCN(S(=O)(=O)c2ccc(-c3cnc(N)c(C(=O)Nc4cccnc4)n3)cc2)CC1`, the cell viability was determined as 1.07.

In the case of `CC(CN1CC(=O)N(CN2CCOCC2)C(=O)C1)N1CC(=O)N(CN2CCOCC2)C(=O)C1` (stereo not given) [Probimane], the cell viability worked out at 1. Consider `Cc1ccc2c(c1)C(=O)C1(O)CCN(c3ccccc3)C1=N2` (single isomer, unassigned; (-)) [(-)-Blebbistatin], for which the cell viability was 1.06.

Turning to `CC(C)C[C@H](NC(=O)[C@H](Cc1ccccc1)NC(=O)c1cnccn1)B(O)O` [Bortezomib], the cell viability is 0.067.

`COc1ccc(CC(C)NCC(O)c2ccc(O)c(NC=O)c2)cc1` (stereo not given) [Formoterol]: the cell viability was 1.02.

Take `COc1ccc(CC(C)NCC(O)c2ccc(O)c(NC=O)c2)cc1` (stereo not given) [Formoterol Hemifumarate]: the cell viability turned out to be 0.986.

Turning to `CS(=O)(=O)c1ccc(C(=O)Nc2ccc(Cl)c(-c3ccccn3)c2)c(Cl)c1` [Vismodegib], the cell viability was 0.933. As to `CNC(=O)c1cc(Oc2ccc(NC(=O)c3cccc(C(F)(F)F)c3)cc2)ccn1`, the cell viability was 1.11. As for `CC1(C)CC[C@]2(C(=O)O)CC[C@]3(C)C(=CC[C@@H]4[C@@]5(C)CCC(=O)C(C)(C)[C@@H]5CC[C@]43C)[C@@H]2C1` [Oleanonic Acid], the cell viability came out at 1.12. For `NC(=O)N1CCC(CC(=O)N2CCC([C@H]3c4ncc(Br)cc4CCc4cc(Cl)cc(Br)c43)CC2)CC1` [Lonafarnib], the cell viability was determined as 0.726.
